In the supplement of paper PMC3334620:
The full ranking holds about 33,000 sequences; the median of “E-score (-0.5 to 0.5)” is about -0.011, and the highest 2% start at about 0.28. The list shows a part of the results.

Molecular target: T1, Gcr1 (UniProt P07261)
T1 sequence: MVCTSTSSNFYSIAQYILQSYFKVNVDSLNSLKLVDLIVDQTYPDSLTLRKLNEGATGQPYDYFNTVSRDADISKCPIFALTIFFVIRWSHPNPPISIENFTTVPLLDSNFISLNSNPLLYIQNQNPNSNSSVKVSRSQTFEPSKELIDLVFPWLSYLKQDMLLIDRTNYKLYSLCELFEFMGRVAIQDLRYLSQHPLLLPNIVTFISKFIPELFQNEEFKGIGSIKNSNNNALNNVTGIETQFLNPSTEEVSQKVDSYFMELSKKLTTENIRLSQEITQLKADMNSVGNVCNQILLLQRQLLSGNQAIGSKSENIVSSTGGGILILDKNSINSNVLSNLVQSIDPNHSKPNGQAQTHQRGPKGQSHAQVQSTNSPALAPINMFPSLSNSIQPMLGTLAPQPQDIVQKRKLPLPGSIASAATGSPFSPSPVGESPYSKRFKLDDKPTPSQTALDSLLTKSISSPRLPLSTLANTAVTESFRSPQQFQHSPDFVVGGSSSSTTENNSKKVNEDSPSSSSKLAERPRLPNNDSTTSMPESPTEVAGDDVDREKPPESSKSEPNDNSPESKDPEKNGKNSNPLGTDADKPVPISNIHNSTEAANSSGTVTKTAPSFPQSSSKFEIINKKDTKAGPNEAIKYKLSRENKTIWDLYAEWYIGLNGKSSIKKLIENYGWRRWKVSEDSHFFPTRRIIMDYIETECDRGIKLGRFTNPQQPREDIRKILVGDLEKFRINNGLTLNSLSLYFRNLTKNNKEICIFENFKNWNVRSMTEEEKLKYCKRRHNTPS
Assay: PBM E-score (8-mer binding enrichment) (E-score (-0.5 to 0.5)); higher = stronger / more preferred TF binding; most listed sequences are background and not binding sites
Details: protein concentration: 100 nM; construct: GST-full length
Procedure, shortened: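 GST-tagged yeast TFs (full-length or DNA-binding domain) were made by PURExpress in vitro transcription/translation and applied at about 100-200 nM to universal all-10-mer Agilent arrays. The arrays were made double-stranded by primer extension, on fresh or once-stripped slides. Bound protein was detected with fluorescent anti-GST, and scans were normalised with masliner. Each ungapped eight-base word, pooled with its reverse complement, received an E-score (modified Wilcoxon-Mann-Whitney statistic) from the Universal PBM Analysis Suite.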

Sequence | PBM E-score
CTTTGCAA | 0.0548
CCTCTCAG | -0.044
GACTCCGC | 0.0149
GGCGCTAA | 0.187
GTCGGGCA | -0.0244
ACCTAGAG | 0.0421
ACTTTAGG | 0.06
AAATCGAT | -0.0115
CAAGCGCC | -0.0572
CACAGGAC | -0.203
AGGGTTGC | -0.0512
AGTAGTTC | -0.0167
CGCTCCAG | -0.0241
GAGTGCGC | -0.155
ATCACGTG | -0.0141
ATAATATA | 0.111
AATTAATA | 0.158
ACGCTGTG | -0.244
ACTCAAAT | 0.0379
ACAACAAC | -0.138
GACTTAAC | -0.238
TCAGAGCA | -0.0359
AAATTCCA | 0.208
GCACGGCA | -0.0387
GGGAGGTA | -0.103

Sequence | PBM E-score
ATATGATA | 0.133
AGCCGCTA | 0.0724
CATCAGGA | 0.197
CTGGCCCA | -0.166
AGGTGTCG | -0.11
CAACTTAC | -0.127
AATCAAGC | -0.0406
AGACACCC | -0.118
CATAATCA | -0.0462
CCTCTCTC | -0.145
ACTGATGC | -0.187
AGTGTCTG | -0.103
CCGGCTTC | 0.358
AAGTTGAT | 0.00575
GAGGGTGC | 0.141
CGCATGAC | -0.0723
TCGTGCAA | -0.104
AAGCTTCG | 0.129
ACTTATTC | -0.238
ACCCGGTC | -0.124
CTGTTAAG | 0.0142
CACCGCTA | -0.0694
ATTGTTAA | 0.0512
CGGCCAAA | 0.064
GTCGATTA | -0.0178

Sequence | PBM E-score
TCACGTAA | -0.0255
GACGCTGA | 0.301
GCCCCCGC | 0.0462
ACGGCCAT | -0.246
CGAGCAAC | -0.0436
TCCATGAA | -0.0988
GGTTACCA | 0.0502
AGCAAGCA | -0.294
GCTTGACA | 0.126
AACTGTGT | -0.0046
ATCACGCA | 0.0407
AAAGCGCT | -0.224
TAGAGGAA | 0.396
ATTTCCCG | 0.0883
ACGCGGAT | 0.13
ATTGGCAA | 0.0646
CGTCGGGA | 0.0889
CTGGTCGC | 0.219
GTAGCGGA | 0.0281
ATGTACTA | -0.172
ACCTTTAG | -0.0897
CCGTGTTA | -0.213
ACTAAGGC | 0.0384
CGTCACTA | 0.198
AGCGGCAG | 0.00512

Sequence | PBM E-score
CCAATCAG | 0.191
AAAGGTCT | -0.0598
AGAGTGTA | -0.0677
ATAGAACA | -0.112
CCTGTTAA | 0.228
CCCTCCGC | -0.194
AATACACA | 0.0147
GGCATCGA | 0.0436
CGGCCCAC | -0.311
AGACGCCG | 0.421
GAAGCCGA | 0.401
TAGGGATA | -0.157
CAACTGAG | -0.0496
CGGTCAAC | -0.244
GACAACCA | 0.111
ACTTCAGA | 0.0499
TAGCGCCA | 0.181
CCTCTTAG | 0.0353
CTGGTTAA | 0.00827
GGAATAAC | 0.0561
ATGTGGAA | 0.16
CACTCGCG | 0.0621
TATTCACA | 0.174
CGGGAATC | 0.216
GCTGGGCC | -0.16

Sequence | PBM E-score
CTCGTACA | -0.0352
TAGTTTGA | 0.0745
AACCGGTG | 0.0439
ATAACGCC | -0.0772
ACTGTTCG | -0.228
AACTCTTC | -0.28
TAAACGTA | 0.0392
ATCGCGTA | -0.0264
ACGTGTGA | -0.274
AGACGAGG | -0.149
CCTCCTTA | -0.153
AGTAATTA | 0.0077
GAGAAACC | 0.0692
ACCTATGG | -0.077
CTATCCCA | -0.0348
CGTAGTAC | -0.0808
CCTGTGTC | 0.129
AGGGGAAG | 0.2
AGTCAATG | 0.0242
CTAAATAG | 0.225
GATCGGGA | -0.142
AACAACGG | 0.128
ATATACAC | -0.143
CCTACTTC | 0.0726
AAAGGGGT | 0.0603

Sequence | PBM E-score
CTGCATCA | 0.057
ATCAGCGC | 0.0104
GCCTCCGA | 0.0691
AGACACTG | -0.232
CCGCTCAA | -0.0654
AGGCTTGA | -0.109
ATCTCAAG | 0.13
CGACGTGA | 0.0384
AGCTCAAA | 0.136
GGAGGAAC | -0.139
CGGTCAAA | -0.0135
ATAAGGCG | 0.0319
CGGCACCC | 0.381
CCGGTCAA | -0.039
CATCGCGA | 0.118
CAAGACTC | 0.14
AATCATTA | 0.0416
CCTCAGTA | -0.186
GAGGATAC | -0.00197
CCAGTTCA | 0.13
TACAGAAA | 0.00771
CGTAGTCA | -0.0862
CGACCTCC | -0.0822
ACTTGAAT | 0.0713
ACCAGCCG | -0.183

Sequence | PBM E-score
ATAGTTGC | 0.232
CAGGTGGC | 0.0298
ATGGCGAA | -0.147
ATGCAGAG | -0.0633
CCATGGTC | -0.165
ACCCCCTC | -0.367
GACAACTC | -0.0407
CGTCCTCA | 0.0405
AAAAACAA | 0.0916
GGCTGAGA | -0.0514
AGCTGGGG | -0.102
CTGGGAGA | 0.156
CAGCCCCC | -0.0636
ACCGTACC | -0.105
ACGAATTC | 0.204
CGCACCAA | 0.0827
GGGATCGA | -0.0159
GTACCGAA | 0.111
CACGGCTG | -0.193
GTAAGGCA | -0.101
AGGTCCCG | -0.0288
GTCCATCA | -0.105
